Source: PubChem BioAssay AID588342 (National Center for Advancing Translational Sciences (NCATS), 2011)
Among all 360,000 compounds or so, about 25,000 (6.9%) were called active. Inconclusive means that the source gave no clear call. Such entries were picked first, then a sample of the others. Calls come from the whole dose curve; as a rule, active = well fitted inhibition curve with a large enough effect; inconclusive = small, poorly fitted or top-dose-only effect; inactive = flat fitted curve, though single readings scatter. Where the call is inconclusive, the potency comes from a doubtful curve fit.

What follows are molecules tested against Luciferin 4-monooxygenase (Photinus pyralis) (UniProt P08659) (assay: qHTS profiling assay for firefly luciferase inhibitor/activator using purifed enzyme and Km concentrations of substrates (counterscreen for miR-21 project)). Conditions: purified FLuc, luminescence inhibition; series mostly up to 57.5 µM.
UniProt P08659, sequence (P08659 whole entry, looked up): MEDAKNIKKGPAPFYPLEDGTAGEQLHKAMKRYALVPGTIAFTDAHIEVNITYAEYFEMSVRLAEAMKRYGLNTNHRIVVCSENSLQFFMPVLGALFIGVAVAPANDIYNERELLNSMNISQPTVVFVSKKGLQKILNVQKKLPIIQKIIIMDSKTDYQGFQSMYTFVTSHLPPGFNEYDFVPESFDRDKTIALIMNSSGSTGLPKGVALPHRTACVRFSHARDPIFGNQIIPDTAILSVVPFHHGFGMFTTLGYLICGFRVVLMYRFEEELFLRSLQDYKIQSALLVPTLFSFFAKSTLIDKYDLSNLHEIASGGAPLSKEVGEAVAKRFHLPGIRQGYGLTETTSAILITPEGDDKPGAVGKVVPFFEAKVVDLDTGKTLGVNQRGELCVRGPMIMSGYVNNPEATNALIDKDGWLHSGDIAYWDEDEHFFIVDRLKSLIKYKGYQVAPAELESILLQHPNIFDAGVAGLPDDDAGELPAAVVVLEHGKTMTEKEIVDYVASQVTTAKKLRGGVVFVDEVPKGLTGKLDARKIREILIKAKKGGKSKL
How it was run: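 Biochemical qHTS of compounds, final roughly 60 µM downward over six points, against 10 nM purified firefly luciferase using Km concentrations of substrates (10 uM D-luciferin, 10 uM ATP) in Tris acetate pH 7.5 buffer; luminescence output.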
Note: nearly all actives have a fitted effect of over 55% in size.
Potency is the fitted concentration of half-maximal effect; tags give direction and shape of the fitted curve.

`c1ccc(Oc2cc(-n3cccn3)ncn2)cc1` was tested. Which Potency did it give?
Its Potency is active: 12 µM.

How did the Potency turn out when `Cn1c(C(=O)N/N=C/c2ccccc2)cc2ccccc21` was run?
Its Potency is active: 2.69 µM.

How did the Potency turn out when `CN(Cc1ccccc1)C(=O)COC(=O)c1ccc2c(c1)OCO2` was run?
The Potency was inconclusive: 23.9 µM [inhibitor, partial curve, poor fit].

With `CCC(=O)N1CCc2cc(Br)cc(S(=O)(=O)N(C)c3ccc(OC)cc3)c21` as the molecule, how does the Potency read?
Its Potency is “inactive”.

With `CC(OC(=O)CC1CC2CCC1C2)C(=O)Nc1ccc(C(N)=O)cc1` (centres undefined) as the molecule, how does the Potency read?
The Potency was “inactive”.

With `COc1ccc2c(c1)C(c1ccc(Cl)cc1)NC(=O)C2` (centres undefined) as the molecule, how does the Potency read?
The Potency was “inactive”.

`COc1cc(C(=O)NCCOc2cc(C)ccc2C(C)C)cc(OC)c1OC` was tested. Which Potency did it give?
Its Potency is “inactive”.

Which Potency does the source give for `O=C(Nc1ccc(Cl)cc1F)c1cccc2ccccc12` here?
Its Potency is inconclusive: 23.9 µM [inhibitor, partial curve, poor fit].

`CCc1ccnc(NS(=O)(=O)c2ccc3c(c2)CCO3)c1` was tested. Which Potency did it give?
Its Potency is “inactive”.

With `COc1ccc(-c2cc(C(=O)N3CCN(c4ccccc4OC)CC3)c3cc(C(C)C)ccc3n2)cc1` as the molecule, how does the Potency read?
The Potency was “inactive”.

With `CN1CCCC(OC(=O)c2ccc(C(C)(C)C)cc2)C1` (centres undefined) as the molecule, how does the Potency read?
The Potency was inconclusive: 30.1 µM [inhibitor, partial curve, poor fit].

`O=C(CSc1n[nH]c(-c2ccccc2)n1)N1CCCCC1` was tested. Which Potency did it give?
The Potency was inconclusive: 26.9 µM [inhibitor, single point].

Which Potency does the source give for `CCOc1ccc(-c2cc(CCCC(=O)Nc3cccc(OC)c3)no2)cc1` here?
Its Potency is active: 6.75 µM.

How did the Potency turn out when `S=C1NC2(CCS1)Oc1ccccc1C1CC(c3ccccc3)=NN12` (centres undefined) was run?
Its Potency is active: 26.9 µM.

Which Potency does the source give for `CN(C)CCCN(C(=O)c1ccc(S(=O)(=O)N2CCCCCC2)cc1)c1nc2cc3c(cc2s1)OCCO3` here?
The Potency was “inactive”.

For `COc1cccc(NC(=O)c2cnsn2)c1`, which Potency is on record?
Its Potency is inconclusive: 26.9 µM [inhibitor, single point].

For `Cc1noc(NS(=O)(=O)c2ccc(NC(=O)c3ccc(N4C(=O)c5ccccc5C4=O)cc3)cc2)c1C`, which Potency is on record?
Its Potency is inconclusive: 23.9 µM [inhibitor, single point].

Which Potency does the source give for `C=CCn1c(N)c(C(=O)Nc2ccccc2OC)sc1=S` here?
The Potency was inconclusive: 30.1 µM [inhibitor, single point].

How did the Potency turn out when `O=C(NCC1(c2ccccc2)CCCC1)C(=O)Nc1cccc(C(F)(F)F)c1` was run?
The Potency was “inactive”.

With `S=c1[nH]nc(-c2ccc(Br)cc2)n1-c1ccc2c(c1)OCCO2` as the molecule, how does the Potency read?
The Potency was inconclusive: 23.9 µM [inhibitor, partial curve, poor fit].

With `COCc1c(C(=O)Nc2nc(C)cs2)oc2ccccc12` as the molecule, how does the Potency read?
Its Potency is inconclusive: 16.9 µM [inhibitor, partial curve].

For `COC(=O)c1ccccc1NC1=C/C(=N\S(=O)(=O)c2ccc(C(=O)O)cc2)c2ccccc2C1=O`, which Potency is on record?
Its Potency is inconclusive: 30.1 µM [inhibitor, single point].

`N#Cc1c(-c2ccc(F)cc2)nc(-c2ccccc2)[nH]c1=O` was tested. Which Potency did it give?
The Potency was inconclusive: 33.8 µM [inhibitor, partial curve, poor fit].

How did the Potency turn out when `CCC1=C/C(=C/N(C)c2ccccc2)C(=O)S1` was run?
The Potency was inconclusive: 16.9 µM [inhibitor, partial curve].

With `COc1ccc2nc(NS(=O)(=O)c3ccc(C)cc3)c(Nc3cc(Cl)ccc3OC)nc2c1` as the molecule, how does the Potency read?
The Potency was inconclusive: 8.49 µM [inhibitor, partial curve, poor fit].

For `COc1ccc(S(=O)(=O)N(C)Cc2ccc3c(c2)OCCO3)cc1`, which Potency is on record?
Its Potency is “inactive”.

With `CCCCOc1ccc2ccccc2c1C=O` as the molecule, how does the Potency read?
Its Potency is active: 21.3 µM.

With `Cc1cccc2c(CC(=O)Nc3ccccc3)noc12` as the molecule, how does the Potency read?
Its Potency is “inactive”.

With `N/C(=N\OC(=O)c1cc(Br)ccc1Cl)c1ccccn1` as the molecule, how does the Potency read?
Its Potency is active: 3.79 µM.

`Cn1nnnc1SCC(=O)c1ccc2c(c1)OCCO2` was tested. Which Potency did it give?
The Potency was inconclusive: 30.1 µM [inhibitor, single point].

How did the Potency turn out when `O=C(COC(=O)C12CC3CC(CC(C3)C1)C2)Nc1ccccc1F` was run?
The Potency was active: 10.7 µM.

For `CCOC(=O)Cc1csc(NC(=O)/C=C/c2ccco2)n1`, which Potency is on record?
The Potency was active: 10.7 µM.

With `CC(=O)Oc1ccc2c3c(c(=O)oc2c1C)CCCC3` as the molecule, how does the Potency read?
Its Potency is inconclusive: 12 µM [inhibitor, partial curve].

How did the Potency turn out when `CN(C(=O)c1cc2sccc2n1C)C1CCCCC1` was run?
The Potency was active: 13.5 µM.

How did the Potency turn out when `O=C(Nc1ccc(F)cc1)Nc1ccccc1N1CCCCC1` was run?
The Potency was “inactive”.

For `CCN(CC)c1ccc2c(C)c(CO)c(=O)oc2c1`, which Potency is on record?
Its Potency is inconclusive: 37.9 µM [inhibitor, partial curve, poor fit].

With `COc1ccccc1Nc1nc(-c2cccs2)cs1` as the molecule, how does the Potency read?
The Potency was active: 4.78 µM.

For `O=C(COc1ccc(F)cc1)NCC1(N2CCCCC2)CCCCC1`, which Potency is on record?
Its Potency is “inactive”.

How did the Potency turn out when `Cc1ccc(NC(=S)Nc2cccc(S(=O)(=O)Nc3c(C)n(C)n(-c4ccccc4)c3=O)c2)cc1` was run?
Its Potency is inconclusive: 23.9 µM [inhibitor, single point].

`CC(C)c1ccc(OCC(=O)NC2CCCC2)cc1` was tested. Which Potency did it give?
The Potency was inconclusive: 37.9 µM [inhibitor, partial curve, poor fit].

How did the Potency turn out when `CN(c1ccccc1)S(=O)(=O)c1ccc(NC(=O)c2ccccc2)cc1` was run?
The Potency was inconclusive: 26.9 µM [inhibitor, partial curve, poor fit].

How did the Potency turn out when `COc1ccc(NC(=O)CSc2ccc(-c3sc(C)nc3C)nn2)cc1` was run?
Its Potency is inconclusive: 6.75 µM [inhibitor, full curve].

`CCC(=O)Oc1c(C(=O)CC)cc2c(C)cc(=O)oc2c1C` was tested. Which Potency did it give?
Its Potency is inconclusive: 4.78 µM [inhibitor, partial curve, poor fit].

With `COc1cccc(NC(=O)CSc2nc(-c3ccccc3)nc3c2Cc2cc(Cl)ccc2O3)c1` as the molecule, how does the Potency read?
The Potency was “inactive”.

Which Potency does the source give for `COc1ccccc1OCC(=O)N/N=C1/C=C(C)CC1` here?
The Potency was “inactive”.

With `Cc1ccc(C(=O)c2oc3ccccc3c2NC(=O)c2nc(S(C)(=O)=O)ncc2Cl)cc1F` as the molecule, how does the Potency read?
The Potency was “inactive”.

How did the Potency turn out when `CSc1ccccc1NC(=O)CN1CCN(S(=O)(=O)c2ccccc2[N+](=O)[O-])CC1` was run?
The Potency was “inactive”.

`COc1cccc(N=Nc2c(=O)[nH]n3c(=O)cc(C)[nH]c23)c1` was tested. Which Potency did it give?
The Potency was inconclusive: 23.9 µM [inhibitor, partial curve, poor fit].

`CCCCN(C)CCNC(=O)Cn1ncc2c3ccccc3n(CCC)c2c1=O` was tested. Which Potency did it give?
Its Potency is “inactive”.

With `CS(=O)(=O)N1N=C(c2ccc(Cl)cc2)CC1c1cccs1` (centres undefined) as the molecule, how does the Potency read?
The Potency was inconclusive: 30.1 µM [inhibitor, single point].

`CC(=O)Nc1ccc2nc(NC(=O)CS(=O)(=O)c3ccccc3)sc2c1` was tested. Which Potency did it give?
The Potency was inconclusive: 23.9 µM [inhibitor, single point].

Which Potency does the source give for `O=C(/C=C/c1ccco1)N1CCC(Cc2ccccc2)CC1` here?
The Potency was inconclusive: 26.9 µM [inhibitor, single point].

How did the Potency turn out when `COc1ccc(-c2ccc(=O)n(Cc3c(F)cccc3Cl)n2)cc1` was run?
Its Potency is inconclusive: 37.9 µM [inhibitor, partial curve, poor fit].

Which Potency does the source give for `COc1ccc(C)cc1N(C)C(=O)c1sc2nc3n(c(=O)c2c1C)CCCCC3` here?
Its Potency is inconclusive: 30.1 µM [inhibitor, partial curve, poor fit].

For `Cc1ccc(NC(=O)c2ncn(-c3ccccc3)n2)c(Cl)c1`, which Potency is on record?
The Potency was inconclusive: 0.849 µM [inhibitor, partial curve, poor fit].

Which Potency does the source give for `Fc1ccc(-c2csc(-c3nc(-c4ccc(Br)s4)cs3)n2)cc1` here?
The Potency was “inactive”.

`C=CCn1cc(C(=O)OC)c(=O)c2cc(S(=O)(=O)N3CCC(C)CC3)ccc21` was tested. Which Potency did it give?
The Potency was inconclusive: 37.9 µM [inhibitor, partial curve, poor fit].

With `CC1CCCCN1C(=O)CSc1nnc(-c2cccc(Cl)c2)o1` (centres undefined) as the molecule, how does the Potency read?
Its Potency is inconclusive: 21.3 µM [inhibitor, partial curve, poor fit].

Which Potency does the source give for `COc1ccc(CCc2nnc(CCC(=O)N(C)Cc3ccncc3C)o2)cc1` here?
Its Potency is inconclusive: 37.9 µM [inhibitor, partial curve, poor fit].

How did the Potency turn out when `CCCCOc1cccc(/C=N/NC(=O)c2csc(C)c2C)c1` was run?
Its Potency is active: 7.57 µM.

For `COCCNC(=O)c1nc2ccccc2s1`, which Potency is on record?
The Potency was active: 16.9 µM.

With `CCn1nc(C(=O)OCC(=O)Nc2nc(-c3ccc(OC)cc3)cs2)c2ccccc2c1=O` as the molecule, how does the Potency read?
Its Potency is inconclusive: 9.53 µM [inhibitor, partial curve].

`Cc1ccc(NC(=O)CCNS(=O)(=O)c2ccc3c(c2)CCC(=O)N3)c(Br)c1` was tested. Which Potency did it give?
The Potency was “inactive”.

With `Cc1ccc(-n2ncc(C(=O)NCc3cccs3)c2C2CCN(C(=O)OC(C)(C)C)CC2)cc1C` as the molecule, how does the Potency read?
The Potency was “inactive”.

How did the Potency turn out when `Cc1cccc(C2N3CC4(C(C)C)CN2CC(C(C)C)(C3)C4=O)c1` (centres undefined) was run?
The Potency was “inactive”.

With `O=C(CNC(=O)C1CCCCC1)OCC(=O)c1ccc(Br)cc1` as the molecule, how does the Potency read?
The Potency was active: 1.69 µM.

With `CCc1cccc2c(C(=O)COC(=O)/C=C/c3ccc(O)c(OC)c3)c[nH]c12` as the molecule, how does the Potency read?
The Potency was inconclusive: 30.1 µM [inhibitor, partial curve, poor fit].

`Cc1ccc(C)c(OCCOCCn2c(-c3ccc(Br)cc3)nc3ccccc3c2=O)c1C` was tested. Which Potency did it give?
The Potency was “inactive”.

Which Potency does the source give for `O=c1c2c(nc3nc(COc4ccccc4)[nH]n13)CCC2` here?
The Potency was inconclusive: 26.9 µM [inhibitor, single point].

For `COc1ccc(C(=O)Nc2sc(C)c(C)c2CN2CCOCC2)cc1`, which Potency is on record?
Its Potency is active: 23.9 µM.

Which Potency does the source give for `Cc1ccc2[nH]c(CSc3nnc(NC(=O)COc4ccccc4F)s3)cc(=O)c2c1` here?
Its Potency is inconclusive: 21.3 µM [inhibitor, partial curve].

With `CC(=O)Nc1cccc(-c2cc(-c3c(Cl)cccc3Cl)no2)c1` as the molecule, how does the Potency read?
The Potency was inconclusive: 37.9 µM [inhibitor, partial curve, poor fit].

How did the Potency turn out when `COc1ccc2c(Sc3ccccc3)c(C(=O)NCCN(C)C)[nH]c2c1` was run?
Its Potency is active: 4.78 µM.

How did the Potency turn out when `CC(C)Oc1ccc(CNC(=O)Cc2ccc(NC(=O)N3CCSc4ncccc43)cc2)cc1` was run?
Its Potency is inconclusive: 37.9 µM [inhibitor, partial curve, poor fit].
